Source: patent US10299477B2 (priority 2015, dated 2019)

Columns and labels:
Assay type in all cases: in vivo
[1] = test system: Puccinia recondita; test: Test Example E: Brown rust on wheat; settings: Brown rust on wheat
Excerpt: [Test Example E] Brown Rust on Wheat

[2] = test system: Botrytis cinerea; test: Test Example B: Gray mold on tomato; settings: Gray mold on tomato
Excerpt: [Test Example B] Gray Mold on Tomato
Seeds of a test plant (tomato variety: Oogata Fukuju) were planted followed by cultivating until three to five first leaves (true leaves) appeared.

[3] = test system: Alternaia brassicicola; test: Test Example C: Alternaria sooty spot on cabbage; settings: Alternaria sooty spot on cabbage
Excerpt: [Test Example C] Alternaria Sooty Spot on Cabbage
Seeds of a test plant (cabbage variety: Shikidori) were planted followed by cultivating until the cotyledons extended.

[4] = test system: Blumeria graminis f sp. hordei; test: Test Example D: Powdery mildew on barley; settings: Powdery mildew on barley
Excerpt: [Test Example D] Powdery Mildew on Barley
After the sprayed dilutions were dried, conidia of Blumeria graminis f sp. hordei were inoculated to the plants by shaking off.

In the case of `CCN1C(=O)CCC(c2cc(OC)cc(OC)c2Cl)=C1c1c(F)cccc1F` [Compound 117], the “Test E control value” [1] is reported as “H (H shows more than 50% of control values)”, the “Test B control value” [2] is reported as “H (H shows more than 50% of control values)” and the “Test C control value” [3] is reported as “H (H shows more than 50% of control values)”. The “Test D control value” [4] was “H (H shows more than 50% of control values)”.

`CCN1C(=O)CCC(c2cc(OC)cc(OC)c2)=C1c1c(F)cc(Cl)cc1F` [Compound 118] was tested, and the “Test E control value” [1] was “H (H shows more than 50% of control values)”, the “Test B control value” [2] was “H (H shows more than 50% of control values)” and the “Test C control value” [3] was “H (H shows more than 50% of control values)”. For the same compound, the “Test D control value” [4] was “H (H shows more than 50% of control values)”.

In the case of `CCn1c(-c2c(F)cc(Cl)cc2F)c(-c2cc(OC)cc(OC)c2)ccc1=O` [Compound 119], the “Test E control value” [1] is reported as “H (H shows more than 50% of control values)”, the “Test B control value” [2] is reported as “H (H shows more than 50% of control values)” and the “Test C control value” [3] is reported as “H (H shows more than 50% of control values)”. For the same compound, the “Test D control value” [4] was “H (H shows more than 50% of control values)”.

With `CCn1c(-c2c(F)cc(Cl)cc2F)c(-c2cc(OC)cc(OC)c2Br)ccc1=O` [Compound 120] the “Test E control value” [1] was “H (H shows more than 50% of control values)”, the “Test B control value” [2] was “H (H shows more than 50% of control values)” and the “Test C control value” [3] was “H (H shows more than 50% of control values)”. The “Test D control value” [4] was “H (H shows more than 50% of control values)”.

In the case of `CCn1c(-c2c(F)cc(Cl)cc2F)c(-c2cc(OC)cc(OC)c2Cl)ccc1=O` [Compound 121], the “Test E control value” [1] is reported as “H (H shows more than 50% of control values)”, the “Test B control value” [2] is reported as “H (H shows more than 50% of control values)” and the “Test C control value” [3] is reported as “H (H shows more than 50% of control values)”. For the same compound, the “Test D control value” [4] was “H (H shows more than 50% of control values)”.

`CCn1c(-c2c(F)cc(Cl)cc2F)c(-c2cc(OC)c(Cl)c(OC)c2)ccc1=O` [Compound 122] was tested, and the “Test E control value” [1] was “H (H shows more than 50% of control values)”, the “Test B control value” [2] was “H (H shows more than 50% of control values)” and the “Test C control value” [3] was “H (H shows more than 50% of control values)”. The “Test D control value” [4] was “H (H shows more than 50% of control values)”.

In the case of `CCn1c(-c2c(F)cccc2F)c(-c2ccccc2OC)ccc1=O` [Compound 123], the “Test E control value” [1] is reported as “H (H shows more than 50% of control values)”, the “Test B control value” [2] is reported as “H (H shows more than 50% of control values)” and the “Test C control value” [3] is reported as “H (H shows more than 50% of control values)”. The “Test D control value” [4] was “H (H shows more than 50% of control values)”.

For `CCn1c(-c2c(F)cccc2F)c(-c2cc(Cl)ccc2OC)cc(Cl)c1=O` [Compound 124], the “Test E control value” [1] was “H (H shows more than 50% of control values)”, the “Test B control value” [2] was “H (H shows more than 50% of control values)” and the “Test C control value” [3] was “H (H shows more than 50% of control values)”. The “Test D control value” [4] was “H (H shows more than 50% of control values)”.

With `CCn1c(-c2c(F)cccc2F)c(-c2cc(Br)ccc2OC)cc(Br)c1=O` [Compound 125] the “Test E control value” [1] was “H (H shows more than 50% of control values)”, the “Test B control value” [2] was “H (H shows more than 50% of control values)” and the “Test C control value” [3] was “H (H shows more than 50% of control values)”. For the same compound, the “Test D control value” [4] was “L (L shows 50% or less of control values)”.

`CCN1C(=O)CCC(c2cc(OC)cc(OC)c2)=C1c1c(F)cc(F)cc1F` [Compound 130] was tested, and the “Test E control value” [1] was “H (H shows more than 50% of control values)”, the “Test B control value” [2] was “H (H shows more than 50% of control values)” and the “Test C control value” [3] was “H (H shows more than 50% of control values)”. The “Test D control value” [4] was “H (H shows more than 50% of control values)”.

In the case of `CCn1c(-c2c(F)cc(F)cc2F)c(-c2cc(OC)cc(OC)c2)ccc1=O` [Compound 131], the “Test E control value” [1] is reported as “H (H shows more than 50% of control values)”, the “Test B control value” [2] is reported as “H (H shows more than 50% of control values)” and the “Test C control value” [3] is reported as “H (H shows more than 50% of control values)”. The “Test D control value” [4] was “H (H shows more than 50% of control values)”.
